Test results from a compilation of properties of binary mixtures (doi:10.1080/00319104.2013.782546).
Some of these densities may be calculated back from excess volumes.

Assay: xn = mol fraction of the nth substance listed
Details: 283.15 K, 101 kPa

CCc1ccccc1 + CCCCCC[n+]1ccn(C)c1.O=S(=O)([N-]S(=O)(=O)C(F)(F)F)C(F)(F)F
Details	mass density [kg/m3]
x1 = 1	875.7

Cc1ccc(C)cc1 + CCCCCC[n+]1ccn(C)c1.O=S(=O)([N-]S(=O)(=O)C(F)(F)F)C(F)(F)F
Details	mass density [kg/m3]
x1 = 1	869.6

CCC[n+]1cccc(C)c1.O=S(=O)([N-]S(=O)(=O)C(F)(F)F)C(F)(F)F + Cc1ccc(C)cc1
Details	mass density [kg/m3]
x2 = 0	1461.7
x2 = 0.1063	1435.7
x2 = 0.2048	1408.1
x2 = 0.3125	1373.3
x2 = 0.4148	1334.2
x2 = 0.5037	1294.4
x2 = 0.6094	1237.9
x2 = 0.6229	1229.8
x2 = 0.6269	1227.7

CCCCCC[n+]1ccn(C)c1.O=S(=O)([N-]S(=O)(=O)C(F)(F)F)C(F)(F)F + c1ccccc1
Details	mass density [kg/m3]
x2 = 0	1385.9
x2 = 0.0442	1380
x2 = 0.1025	1372
x2 = 0.1963	1357.6
x2 = 0.299	1338.4
x2 = 0.3675	1323.4
x2 = 0.3905	1318
x2 = 0.5962	1253.6
x2 = 0.6486	1230.5
x2 = 0.7536	1170.7
x2 = 0.8367	1108.2
x2 = 0.8706	1074.7

Cc1ccccc1C + CCC[n+]1cccc(C)c1.O=S(=O)([N-]S(=O)(=O)C(F)(F)F)C(F)(F)F
Details	mass density [kg/m3]
x1 = 1	888.1

CCOS(=O)(=O)[O-].CC[n+]1cccc(C)c1 + c1ccccc1
Details	mass density [kg/m3]
x2 = 0	1230.7
x2 = 0.0483	1224.3
x2 = 0.1029	1217.1
x2 = 0.1981	1203.4
x2 = 0.3038	1184.4
x2 = 0.4028	1163.9
x2 = 0.4979	1140.5
x2 = 0.6009	1111.4

CCOS(=O)(=O)[O-].CC[n+]1cccc(C)c1 + Cc1cccc(C)c1
Details	mass density [kg/m3]
x2 = 0.0505	1220.9
x2 = 0.1027	1210.2
x2 = 0.1213	1206.5
x2 = 0.1433	1202.2
x2 = 0.1631	1197.8
x2 = 0.1962	1192.6
x2 = 0.2016	1191.4

Cc1ccc(C)cc1 + CC[n+]1ccn(C)c1.O=S(=O)([N-]S(=O)(=O)C(F)(F)F)C(F)(F)F
Details	mass density [kg/m3]
x1 = 1	869.6

CCC[n+]1cccc(C)c1.O=S(=O)([N-]S(=O)(=O)C(F)(F)F)C(F)(F)F + Cc1ccccc1C
Details	mass density [kg/m3]
x2 = 0	1461.7
x2 = 0.0479	1450.4
x2 = 0.1039	1435.9
x2 = 0.2077	1407.1
x2 = 0.4059	1341.7
x2 = 0.4992	1303
x2 = 0.588	1258.5
x2 = 0.6238	1238

CC[n+]1cccc(C)c1.O=S(=O)([N-]S(=O)(=O)C(F)(F)F)C(F)(F)F + CCc1ccccc1
Details	mass density [kg/m3]
x2 = 0	1503.1
x2 = 0.049	1489.4
x2 = 0.1028	1473.6
x2 = 0.2985	1406
x2 = 0.4474	1340.8
x2 = 0.535	1295.1
x2 = 0.5737	1272.8

CCCCCC[n+]1ccn(C)c1.O=S(=O)([N-]S(=O)(=O)C(F)(F)F)C(F)(F)F + Cc1ccccc1C
Details	mass density [kg/m3]
x2 = 0	1385.9
x2 = 0.1029	1367.6
x2 = 0.217	1342.9
x2 = 0.299	1322.6
x2 = 0.3413	1310.9
x2 = 0.7506	1132.3

CCC[n+]1cccc(C)c1.O=S(=O)([N-]S(=O)(=O)C(F)(F)F)C(F)(F)F + c1ccccc1
Details	mass density [kg/m3]
x2 = 0	1461.7
x2 = 0.0999	1444.2
x2 = 0.1999	1424.1
x2 = 0.2994	1400.7
x2 = 0.3991	1372.5
x2 = 0.5139	1332.6
x2 = 0.6107	1288.7
x2 = 0.7003	1236.9
x2 = 0.7273	1218.3
x2 = 0.7395	1209.1
x2 = 0.7492	1202.4
x2 = 0.7847	1173.1
x2 = 0.7959	1163.1

CCCCCC[n+]1ccn(C)c1.O=S(=O)([N-]S(=O)(=O)C(F)(F)F)C(F)(F)F + CCc1ccccc1
Details	mass density [kg/m3]
x2 = 0.0514	1375.9
x2 = 0.1003	1366.3
x2 = 0.2108	1340.9
x2 = 0.3061	1316.2
x2 = 0.5009	1250.2
x2 = 0.6594	1175.8
x2 = 0.6754	1166.8

CC[n+]1ccn(C)c1.O=S(=O)([N-]S(=O)(=O)C(F)(F)F)C(F)(F)F + Cc1ccccc1
Details	mass density [kg/m3]
x2 = 0	1534
x2 = 0.047	1521.8
x2 = 0.2953	1443.8
x2 = 0.3983	1402.6
x2 = 0.5018	1353
x2 = 0.5968	1298.1
x2 = 0.6192	1283.4

CC[n+]1ccn(C)c1.O=S(=O)([N-]S(=O)(=O)C(F)(F)F)C(F)(F)F + CCc1ccccc1
Details	mass density [kg/m3]
x2 = 0.1041	1501.1
x2 = 0.1985	1466.7
x2 = 0.2934	1428.5
x2 = 0.3956	1382.4
x2 = 0.4594	1349.6
x2 = 0.4817	1337.8
